Among all 350,000 compounds or so, about 9,900 (2.8%) were called active. Inconclusive means that the source gave no clear call. Such entries were picked first, then a sample of the others. The call rests on the fitted dose curve; in most records, active means well fitted activation curve with a large enough effect; inconclusive means small, poorly fitted or top-dose-only effect; inactive means no such curve, though single readings can be large or run the other way. No potency is given beside an inconclusive call; the fits are too rough.
Experiment: A quantitative high throughput screen for small molecules that induce DNA re-replication in MCF 10a normal breast cells. Further: nearly all actives have a fitted effect of over 50% in size.
Details: MCF 10A DNA re-replication, Hoechst nuclear intensity, 48 h; series mostly up to 46.1 µM
Potency means the concentration at half of the fitted maximal effect; tags describe the fitted curve by direction and shape.

SMILES	Potency
CCOC(=O)N1CCC(=NNc2nc3ccccc3s2)CC1	inconclusive [activator, single point]
CC(=O)NC(=S)Nc1ccc([N+](=O)[O-])cc1C	inconclusive [activator, single point]
COc1ccc(NC(=O)CN2C(=O)COc3ccc(S(=O)(=O)N4CCOCC4)cc32)cc1Cl	inactive
NNC(=O)c1csc(-c2ncc(C(F)(F)F)cc2Cl)n1	inactive
CC1CN(C(=O)c2ccc(COc3ccc(C(C)C)cc3)o2)CC(C)O1 (centres undefined)	inconclusive [activator, partial curve]
CC(C)CCNC(=S)Nc1ccc([N+](=O)[O-])cc1	inconclusive [activator, single point]
CCc1ccc(Nc2ncc3c(n2)CC(C)(C)CC3=O)cc1	inconclusive [activator, full curve]
CCOC(=O)c1oc2ccc(CNC3CCCCC3)c(Cl)c2c1C	active: 16.4 µM
COCCCN1C(=O)c2[nH]nc(-c3cc(C)cc(C)c3O)c2C1c1ccc(O)c(OC)c1 (centres undefined)	inactive
OC[C@H](O)[C@H](O)[C@@H](O)[C@@H](O)[C@@H]1SC(c2ccccc2)=NN1c1ccccc1	inconclusive [activator, single point]
CC(C)C[C@H]1CN([C@@H](CC(C)C)CN2CCC[C@@H]2CN2C(=O)C(=O)NC[C@@H]2Cc2ccccc2)C(=O)C(=O)N1CCc1ccccc1	inactive
CC(C)c1cc(=O)n2[nH]c(SCc3ccc(Cl)cc3)nc2n1	inconclusive [activator, single point]
Cc1n[nH]c(=S)n1/N=C/c1ccc(-c2ccccc2[N+](=O)[O-])o1	inconclusive [activator, single point]
Cc1onc(-c2c(Cl)cccc2Cl)c1C(=O)N=C(N)N1CCCC1	inactive
COC(=O)C1=C(C(=O)OC)[C@@H]2N(C)c3ccccc3[C@@]23C[C@@H](C(=O)OC)N(C(=O)COCc2ccccc2)C3=N1	inconclusive [activator, single point]
COc1ccc(S(=O)(=O)N2CCCC(N(C)CCc3ccccc3)C2)cc1OC (centres undefined)	inactive
CSc1nc(Cl)c(Cc2ccc(OC(C)C)cc2)c(N(C)C)n1	inconclusive [activator, partial curve, poor fit]
CCN(CC)c1ccc2c(C)cc(=O)oc2c1	active: 25.9 µM
COc1cc(C2/C(=C(\O)c3ccc4c(c3)CC(C)O4)C(=O)C(=O)N2CCCn2ccnc2)cc(OC)c1OC (centres undefined)	inactive
O=C(Nc1nc2c(s1)CCCC2)c1cc(-c2ccccc2)nc2ccccc12	inactive
CCOC(=O)c1c(-c2ccc(-c3ccccc3)cc2)csc1NC(=O)C1C2CCC(O2)C1C(=O)O (centres undefined)	active: 9.2 µM
Cc1cccc(CN2CCCC(C(=O)Nc3ccc(-c4cscn4)cc3)C2)c1 (centres undefined)	inactive
COc1ccc2c(c1)NC(=O)CC(c1ccccc1)=N2	inconclusive [activator, single point]

SMILES	Potency
O=C(CN1C(=O)C2C3CCC(C3)C2C1=O)OCC(=O)c1cccc([N+](=O)[O-])c1 (centres undefined)	inactive
CCOc1ccc(NC(=O)CN2CCN(CC(=O)Nc3ccc4c(c3)OCO4)CC2)cc1	inconclusive [activator, single point]
COc1ccc(CN(CCc2ccccc2)Cc2ccccc2)cc1OC	inconclusive [activator, single point]
CN1CC(=O)N/C1=N\C(=O)Nc1ccc2c(c1)N(C)C(=O)CS2	inconclusive [activator, partial curve, poor fit]
O=C(CN1CCCCC1)Nc1ccc(F)c(Cl)c1	inconclusive [activator, single point]
C=CCn1c(=O)c(C(=O)NCCNCC)c(O)c2ccccc21	inconclusive [activator, partial curve, poor fit]
N=C1c2ccccc2CN1NC(=O)CC12CC3CC(CC(C3)C1)C2	inconclusive [activator, single point]
Cc1ccc(S(=O)(=O)N2CCCCC2)cc1NC(=O)COC(=O)Cc1c(F)cccc1Cl	inconclusive [activator, single point]
Cc1[nH]c2ccccc2c(=O)c1C(=O)/C=C/c1ccccc1	active: 11.6 µM
Cc1ccc(NC(=O)c2cccc(OCc3c(C)noc3C)c2)c(C)c1	inactive
COc1ccc(NC(=O)CC2C(=O)N(c3ccc(Cl)cc3)C(=S)N2CCc2ccncc2)cc1 (centres undefined)	inactive
O=C(NCC1CCCO1)C1CC(=O)N(c2cccc(Cl)c2)C1 (centres undefined)	inactive
Cc1[nH]c2ccccc2c1/C=C/c1nc2ccccc2c(=O)n1CCO	inconclusive [activator, single point]
CCCCN(CC)CCCNC(=S)Nc1ccc2nc(N3CCN(C)CC3)cc(C)c2c1	inactive
CC(C)(C)C(O)C(Cc1ccccc1Cl)n1cncn1 (centres undefined)	inactive
O=C(NCCCn1ccnc1)c1nn2c(C(F)(F)F)cc(-c3ccccc3)nc2c1Cl	inactive
CCOC(=O)c1cc(C)nc(Sc2ccc(C)cc2)c1C#N	inconclusive [activator, single point]
O=C(O)CSCC(=O)Nc1cc(C(F)(F)F)ccc1Cl	inactive
CC1CCN(c2cc(C#N)c(C#N)cc2[N+](=O)[O-])CC1	inactive
Cc1cc(C)c2nc(/N=C(\N)NC(=O)Nc3ccccc3)nc(C)c2c1	active: 20.6 µM
COc1ccc(S(=O)(=O)N2CCN(C)CC2)cc1C(=O)Nc1ccccc1	inactive
COc1ccc(C(=O)CC(=O)C(=O)Nc2cccc([N+](=O)[O-])c2C)cc1	inconclusive [activator, single point]
Cc1occc1C(=O)N1CCN(S(=O)(=O)c2ccc(F)cc2)CC1	inactive

SMILES	Potency
CCc1ccc(NC(=O)C(C)Sc2nc(-c3ccco3)c(C#N)c(=O)[nH]2)cc1 (centres undefined)	inconclusive [activator, full curve, poor fit]
CN(C)CCCNc1cc(-c2ccccc2)nc2cc(-c3cccc(F)c3)nn12	active: 20.6 µM
COc1ccc(CNC(=O)C2=CC(c3ccc(C)cc3)=NS(=O)(=O)N2C)cc1	inactive
CCCCC(=O)NC(c1ccc(Cl)cc1Cl)c1ccc2cccnc2c1O (centres undefined)	inconclusive [activator, single point]
O=C(CCc1nc2ccccc2s1)OCc1ccccc1F	inactive
Cc1cnc(C(=O)OCC(=O)NCc2ccc(Cl)cc2)cn1	inactive
COC(=O)c1ccc(/C=C(\C#N)c2nc3ccccc3s2)cc1	inconclusive [activator, single point]
CC1=C(/C=C/C(C)=C\C=C\C(C)=C\C=C\C=C(C)\C=C\C=C(C)\C=C\C2=C(C)C[C@@H](O)CC2(C)C)C(C)(C)C[C@H](O)C1	inconclusive [activator, full curve]
CN(CC(=O)Nc1cccc2ccccc12)c1ccc(S(=O)(=O)N2CCOCC2)cn1	inconclusive [activator, partial curve, poor fit]
N#Cc1c([N+](=O)[O-])cc([N+](=O)[O-])cc1S(=O)(=O)Cc1ccccc1	inconclusive [activator, partial curve, poor fit]
CN(C)C(=O)CSc1nnc(-c2ccc(S(=O)(=O)N3CCCC3)cc2)n1C	inconclusive [activator, partial curve, poor fit]
CC(C)=CCC/C(C)=C/C=C/C(C)=C/C=C/C(C)=C/C=C/C=C(C)/C=C/C=C(C)/C=C/C=C(\C)CCC=C(C)C	inconclusive [activator, single point]
CC(=O)C(C(C)=O)C1(O)C(=O)c2ccccc2C1=O	inconclusive [activator, single point]
Cc1onc(-c2ccccc2)c1C(=O)Nc1sc2c(c1C(N)=O)CCC2	inactive
CCOC(=O)C1=C(N)Oc2ccc3ccccc3c2C1c1cccnc1 (centres undefined)	inconclusive [activator, partial curve, poor fit]
O=C(NCc1ccccn1)C1CCN(S(=O)(=O)N2CCCC2)CC1	inconclusive [activator, single point]
CCOCCn1c(=NC(=O)c2ccc(S(=O)(=O)N3CCOCC3)cc2)sc2cc(S(N)(=O)=O)ccc21	inactive
CCCCn1c(N)c(N(CCC(C)C)C(=O)CSc2nncn2-c2ccccc2)c(=O)[nH]c1=O	inactive
Cc1ccc(C)c(CSc2nc3[nH]ncc3c(=O)[nH]2)c1	inconclusive [activator, full curve, poor fit]
O=C(CC1C[C@H](C(=O)N2CCCCC2)[C@@]2(CCc3ccccc3)c3[nH]c4ccccc4c3CCN2C1=O)NCCCn1ccnc1 (some centres undefined)	inconclusive [activator, partial curve, poor fit]
O=C1C=C(c2ccccc2)C[C@H](c2cccs2)[C@H]1n1nnc([N+](=O)[O-])n1	inconclusive [activator, partial curve, poor fit]
C=C(C)Cn1c(CCn2c3ccccc3c3ccccc32)n[nH]c1=S	inconclusive [activator, partial curve, poor fit]
Cc1ccc(OCCn2c(=O)n(C)c3ccccc32)cc1	inconclusive [activator, partial curve, poor fit]

From PubChem BioAssay AID624296 (National Center for Advancing Translational Sciences (NCATS), 2012)
